Test results reported in the supplement of paper PMC11417369.
This is one part of the list.

What follows are sequences tested on PF3D7_0420300 AP2 domain 1 (GST-tagged) (assay: gcPBM binding intensity (ln(normalized median fluorescence intensity)); higher = stronger DNA binding).
How it was run: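 After 1 h on an Agilent 4 × 180k array of primer-extended double-stranded 36-bp intergenic genomic probes and negative controls, bound GST-tagged P. falciparum DNA-binding domains were detected with Alexa488 anti-GST antibody and scanned at 488 nm. The domains had been expressed in E. coli, and binding took place in 1× PBS with 1% milk, 0.2 mg/ml BSA, 0.5% salmon testes DNA and 0.03% Triton X-100. Binding intensity is the highest Masliner-normalised natural-log median intensity across replicate spots of either probe orientation.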

Going from “CGAAAGGAAATATAACGTACATAAGATTATATTCAC [XGTACX_site3868]” to “AATAAATAAATATATTGTACATATATATATATATAT [XGTACX_site8627]”, the “gcPBM binding intensity (ln)” value falls from 9.2 to 9.11.

First: ATGAACAAGGGGCACACACACATTATGACTAATTTA [CACACA_site3204]
Second: TATTAAAAGAAAAAAAAAAAAAAATTAATACATATA [XGTACX_negctrl_site582]
The “gcPBM binding intensity (ln)” value of the first is higher: 9.95 for the first, 9.07 for the second.

Going from TATTAATATATAGTAGTGCAATAAAGATATACTGAA to “AACATACTCACGAACATACACACGGACATACATACG [CACACA_site603]”, the “gcPBM binding intensity (ln)” value rises from 9.39 to 9.87.

First: GTACATTATATATATACACACATACATAATAAAGAA [CACACA_site5528]
Second: ATATGCTATTAATTATGTACATATATATATATATAT [XGTACX_site4901]
The “gcPBM binding intensity (ln)” value of the first is higher: 9.75 for the first, 9.42 for the second.

Compared with “GGACTATACAGTTATACACACACATATATATATAAT [CACACA_site7991]”, “ACTACGTGTCAAAAATATTAATTACAAATGAATAAA [GTGCAC_negctrl_site248]” is lower in “gcPBM binding intensity (ln)” value: 9.86 for the first, 8.87 for the second.

Going from “AAATGTTAAAAAGAGAAAAACAATAAAAAACAATTA [CACACA_negctrl_site1044]” to “AGGTGTCATAGATGCACACAAAAGTAACACGCACCT [CACACA_site4418]”, the “gcPBM binding intensity (ln)” value rises from 9.4 to 9.44.

Compared with “AAAAGGTTATCAAAATGTACGAAATGTTACAAAAAT [XGTACX_site6215]”, “CTTAATTTTTTTTAATGTACATACATATAAACCTTT [XGTACX_site2233]” is lower in “gcPBM binding intensity (ln)” value: 9.44 for the first, 9.23 for the second.

First: AGTTATATGTACTACACACGTACACAAAATAAGATA [CACACA_site3719]
Second: AAAATTAAAAATAACACACACATATTTATATTTATA [CACACA_site7329]
The “gcPBM binding intensity (ln)” value of the first is lower: 9.57 for the first, 9.75 for the second.

Going from “TATTCTTTTATGAATACACACATATACGAAAATATT [CACACA_site6585]” to “AAGGAGAAATATTGCACACGTGCAAAATGGTATGAG [CACACA_site259]”, the “gcPBM binding intensity (ln)” value rises from 9.36 to 9.48.

First: TGTAATATTTTTCATGCATGCTCTTCTTTTACATAA [TGCATGCA_site144]
Second: ATAATTTATATTACTTGTACATATTTATATGAACGA [XGTACX_site3610]
The “gcPBM binding intensity (ln)” value of the first is higher: 9.36 for the first, 8.96 for the second.

Compared with “TATATTAAACAATATACACACATTAATGTATCCATA [CACACA_site5523]”, “TTATATATATATATATGTACACATATATAACATGAT [XGTACX_site6643]” is lower in “gcPBM binding intensity (ln)” value: 9.45 for the first, 9.21 for the second.

Compared with “ATAACCTAATAATACACACACATGAATATAAATAAC [CACACA_site6584]”, “ATATATATTTTATACGCATGTAATTATTATGTGGTC [TGCATGCA_site45]” is lower in “gcPBM binding intensity (ln)” value: 10.2 for the first, 9.29 for the second.

First: AAACAATTTGGGTGTACACATGATACGTTCGATGAG [CACACA_site5160]
Second: ATATTATACATTTATACACACATAAAAAGACAAAAA [CACACA_site3565]
The “gcPBM binding intensity (ln)” value of the first is lower: 9.47 for the first, 9.75 for the second.

Going from “TTTTTTTTCAATGGCACACATTTTAGATTTATGCTT [CACACA_site4735]” to “CATAAATAATATATTTGTACGAATAAAATTTGTTCA [XGTACX_site3445]”, the “gcPBM binding intensity (ln)” value falls from 9.26 to 9.07.

Compared with “TAAAACAATATAAAATGTACAGAATTTTTTTTTCTT [XGTACX_site6820]”, “ATAATGAAAAGAAAGGGTACAAAAAAAAAAAAAAAT [XGTACX_site3350]” is higher in “gcPBM binding intensity (ln)” value: 9.01 for the first, 9.85 for the second.

First: TTCTTTTATGATAATTGTACCCTTTTTAAAAAGAAA [XGTACX_site7815]
Second: AACTGATTATTTTTTTGTACATATATAATAATATAT [XGTACX_site5953]
The “gcPBM binding intensity (ln)” value of the first is lower: 9.02 for the first, 9.39 for the second.

First: TATGTATATACATAAACATGCAAAAACAATATCTTA [TGCATGCA_site950]
Second: TATTTATTTATTTAATGTACAAAAGAACAAGAATTT [XGTACX_site2248]
The “gcPBM binding intensity (ln)” value of the first is higher: 9.19 for the first, 8.93 for the second.

Going from “TCTTAATCGTATTATTACTATAATTATATAATATTT [CACACA_negctrl_site1594]” to “TTCTTCTGTTTTATTACACACCATTTTGTGTATACA [CACACA_site7059]”, the “gcPBM binding intensity (ln)” value rises from 9.16 to 9.65.

Compared with “ATATATATATTATATAGTACAGAGTATACTATTATA [XGTACX_site1893]”, “AACGATATATGTACTACACACATTATGTCATCCTAT [CACACA_site2464]” is higher in “gcPBM binding intensity (ln)” value: 9.19 for the first, 9.74 for the second.

Going from “CAAAAAGGAATGTATGCACACAATTGATTTTAACTC [CACACA_site1468]” to “GATCTAAAAACAAGGTGTACAAGAAAAAAAAAAAAA [XGTACX_site7577]”, the “gcPBM binding intensity (ln)” value falls from 9.46 to 9.07.

Compared with “ACAAAAGGGGAATACACACACATATATATATATATA [CACACA_site2215]”, ACATGTGAATTTTAGGTGCACTTGTAATTTAACATT is lower in “gcPBM binding intensity (ln)” value: 9.74 for the first, 9.15 for the second.

Compared with “ATATATATATAATGTTGTACATAAATATTATATTTA [XGTACX_site5225]”, “TTTTTATTTATTCTCTTTGTATTATAAAATAAAAGC [XGTACX_negctrl_site253]” is lower in “gcPBM binding intensity (ln)” value: 8.98 for the first, 8.87 for the second.

Going from “GGAAAAATATAATATGCATGTTATTATTTTTTTATA [TGCATGCA_site836]” to “ATATATATTTTTAATTGTACAGAATTAAAAATATTG [XGTACX_site1967]”, the “gcPBM binding intensity (ln)” value falls from 9.06 to 8.98.

First: AAAAAAAAAAAAAGCTGTACAATTAAAGACAAACCT [XGTACX_site8610]
Second: CTTTAACCATATATGTGTACGTATTTTATTCATATT [XGTACX_site6212]
The “gcPBM binding intensity (ln)” value of the first is lower: 9.52 for the first, 9.56 for the second.

Compared with “AAGAAGTGGAAAATATACTCCACATATATATATGTG [CACACA_negctrl_site304]”, “AAAAAACAATTTGTGTGTACACATGATACGTTCGAT [XGTACX_site4112]” is higher in “gcPBM binding intensity (ln)” value: 9.24 for the first, 9.79 for the second.

First: GCCCACACGAACCATGCATGCCACGATATAAACCAC [TGCATGCA_site322]
Second: TTTTTTACAGAAAAATATTAAAATTATAAATGTGAA [GTGCAC_negctrl_site451]
The “gcPBM binding intensity (ln)” value of the first is higher: 9.38 for the first, 8.95 for the second.

First: TATGAAATTTTAATTACACACAGGAAAATAAAATGT [CACACA_site8430]
Second: TAATATATATATATGGTGCATTTAATTTATATATAA
The “gcPBM binding intensity (ln)” value of the first is higher: 9.57 for the first, 9.11 for the second.

Compared with “TTATAATATATATAAAAGAAAAAAAATTATAATATA [CACACA_negctrl_site90]”, “TTATTTTTCTTTATTGGTACACACGAAAAAAAAATT [XGTACX_site6482]” is lower in “gcPBM binding intensity (ln)” value: 9.15 for the first, 9 for the second.

“TGCAATATATCAAAGTGTACATGCAATAAAAAAAAA [XGTACX_site652]” was tested, and the “gcPBM binding intensity (ln)” value was 9.29.
